{"source": "PubChem BioAssay AID1030", "about": "(National Center for Advancing Translational Sciences (NCATS), 2008)", "note": "The whole screen tested about 220,000 compounds, of which about 16,000 (7.3%) were called active. The shares of active, inactive and inconclusive entries below differ from those in the screen. The call rests on the fitted dose curve; in most records, active means well fitted inhibition curve with a large enough effect (not every such curve was filed as active); inconclusive means small, poorly fitted or top-dose-only effect, or another doubt; inactive means no such curve, though single readings can be large or run the other way. Potencies of inconclusive entries are left out as doubtful fits. Potency means the concentration at half of the fitted maximal effect; tags describe the fitted curve by direction and shape.", "data": [{"biological_target": "Aldehyde dehydrogenase 1A1 (Homo sapiens) (UniProt P00352)", "sequence (P00352 whole entry, looked up)": "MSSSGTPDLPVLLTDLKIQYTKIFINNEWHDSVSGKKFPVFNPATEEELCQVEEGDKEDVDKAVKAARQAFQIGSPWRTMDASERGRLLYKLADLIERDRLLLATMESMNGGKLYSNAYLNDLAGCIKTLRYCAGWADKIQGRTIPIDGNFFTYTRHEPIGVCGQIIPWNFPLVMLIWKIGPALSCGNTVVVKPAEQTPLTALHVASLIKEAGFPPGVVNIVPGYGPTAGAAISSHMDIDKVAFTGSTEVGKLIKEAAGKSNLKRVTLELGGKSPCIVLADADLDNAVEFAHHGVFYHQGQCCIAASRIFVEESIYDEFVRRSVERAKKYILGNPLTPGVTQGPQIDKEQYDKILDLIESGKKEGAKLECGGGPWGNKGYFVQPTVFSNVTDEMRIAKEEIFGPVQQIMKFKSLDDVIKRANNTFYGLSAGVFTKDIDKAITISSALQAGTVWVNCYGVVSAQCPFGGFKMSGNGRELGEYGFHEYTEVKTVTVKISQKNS", "assay": "qHTS Assay for Inhibitors of Aldehyde Dehydrogenase 1 (ALDH1A1);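 on activity, negative = inhibition: plate controls were no enzyme wells and a reference inhibitor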", "conditions": "Purified ALDH1A1, NADH fluorescence, propionaldehyde substrate; series mostly up to 75.3 µM; activity, negative = inhibition: at the top concentration", "values": [{"smiles": "O=C(Nc1ccc2c(c1)OCO2)c1cc(-c2cccnc2)nc2ccccc12", "Potency": "active: 7.94 µM"}, {"smiles": "NC(=O)C1CCN(C2OC(=O)c3ccccc32)CC1", "note": "(configuration not stated)", "activity, negative = inhibition": "inactive: -5.84%"}, {"smiles": "Cc1cc(NC(=O)CCCS(=O)(=O)c2nc(-c3cccs3)cc(C(F)(F)F)n2)no1", "Potency": "inconclusive [inhibitor, full curve]"}, {"smiles": "Cc1sc2c(c1C)CN(C(C)(C)C)CN2C(=O)c1ccccc1", "Potency": "inconclusive [inhibitor, single point]"}, {"smiles": "CC1=CC(C)(C)Nc2ccc(OC(=O)C(Cc3ccccc3)N3C(=O)C4CCCCC4C3=O)cc21", "note": "(configuration not stated)", "Potency": "inconclusive [inhibitor, single point]"}, {"smiles": "NC(=O)CSc1nc2sc3c(c2c2ncnn12)CCCC3", "Potency": "inconclusive [inhibitor, single point]"}, {"smiles": "NC(=O)CSc1nnc(-c2ccc(S(=O)(=O)N3CCCC3)cc2)n1CC1CCCO1", "note": "(configuration not stated)", "Potency": "inconclusive [inhibitor, partial curve]"}, {"smiles": "Nc1ccccc1N=Cc1ccc(-c2cccc(Cl)c2)o1", "Potency": "inconclusive [inhibitor, partial curve]"}, {"smiles": "O=C(C(=O)N1CCN(C(=O)c2ccco2)CC1)c1c[nH]c2ccccc12", "activity, negative = inhibition": "inactive: 1.72%"}, {"smiles": "CS(=O)(=O)Nc1ccc([N+](=O)[O-])cc1OC1CCCCC1", "Potency": "active: 22.4 µM"}, {"smiles": "CC(C)CNC(=O)c1cc2nc3c(c(C(F)(F)F)n2n1)CCc1ccccc1-3", "Potency": "inconclusive [inhibitor, partial curve]"}, {"smiles": "COc1cc(CNCCN(C)C)ccc1OCc1c(F)cccc1Cl", "activity, negative = inhibition": "inactive: 1.84%"}, {"smiles": "CC(=O)OCc1c(COC(C)=O)[n+](=O)c2ccccc2n1[O-]", "activity, negative = inhibition": "inactive: 5.89%"}, {"smiles": "CCOC(=O)N/N=C/c1ccc(F)cc1", "activity, negative = inhibition": "inactive: 8.23%"}, {"smiles": "CCC(=O)Nc1ccc(-c2cc(-c3ccccc3)nc(-c3ccc(NC(=O)CC)cc3)n2)cc1", "Potency": "inconclusive [inhibitor, partial curve]"}, {"smiles": "COc1ccccc1Nc1nc(Cl)nc(Nc2ccccc2OC)n1", "Potency": "inconclusive [inhibitor, single point]"}, {"smiles": "CC(Oc1ccccc1)c1ccnc2nc(/N=C/N(C)C)nn12", "note": "(configuration not stated)", "Potency": "inconclusive [inhibitor, partial curve]"}, {"smiles": "COc1cccc(C(C(=O)NCC2CCCO2)N(CC2CCCO2)C(=O)CN2C(=O)c3ccccc3S2(=O)=O)c1", "note": "(configuration not stated)", "Potency": "active: 14.1 µM"}, {"smiles": "O=C(Nc1ccccc1N1CCCC1)c1cccc(-c2cc3ccccc3oc2=O)c1", "activity, negative = inhibition": "inactive: -1.41%"}, {"smiles": "Cc1cc(NC(c2cccnc2)c2c(C)[nH]c3ccccc23)no1", "note": "(configuration not stated)", "Potency": "inconclusive [inhibitor, single point]"}, {"smiles": "COc1ccc(O[C@H]2C=C[C@@H](c3ccccc3)O[C@@H]2CO/N=C/C[C@@H]2C=C[C@H](OC(C)=O)[C@@H](COC(C)=O)O2)cc1", "Potency": "inconclusive [inhibitor, partial curve]"}, {"smiles": "O=C(CSc1nnc(-c2cccnc2)o1)Oc1ccccc1", "Potency": "inconclusive [inhibitor, single point]"}, {"smiles": "COc1ccc(CNC(=O)c2c(-c3cc(Cl)c(OC)c(Cl)c3)noc2C)cc1", "Potency": "active: 0.0447 µM"}, {"smiles": "COc1ccc(/C=C/C(=O)NC(=S)NNC(=O)Cc2cccs2)cc1", "activity, negative = inhibition": "inactive: -4.5%"}, {"smiles": "O=C(/C=C/NNC(=O)c1cccc(Br)c1)c1cccc(Br)c1", "Potency": "inconclusive [inhibitor, single point]"}, {"smiles": "CCN(C(=O)CSc1ncccc1C(=O)OC(C)C)c1cccc(C)c1", "Potency": "inconclusive [inhibitor, single point]"}, {"smiles": "Cc1cccc(/C=N/N(CCO)C2=NS(=O)(=O)c3ccccc32)c1", "Potency": "inconclusive [inhibitor, single point]"}, {"smiles": "COC(=O)C(CC(C)C)NC(=O)CSc1nc(-c2ccccc2)c(C#N)c(=O)[nH]1", "note": "(configuration not stated)", "Potency": "inconclusive [inhibitor, single point]"}, {"smiles": "Cc1ccccc1NC(=O)c1ccc(COc2ccc3c(C)cc(=O)oc3c2)cc1", "Potency": "inconclusive [inhibitor, partial curve]"}, {"smiles": "Clc1ccccc1CSc1nc2ccncc2[nH]1", "Potency": "inconclusive [inhibitor, single point]"}, {"smiles": "S=C(c1ccc(-c2ccccc2Cl)o1)N1CCOCC1", "Potency": "active: 7.94 µM"}, {"smiles": "O=C(OC(C(=O)NC1CCCC1)c1ccccc1F)c1ccco1", "note": "(configuration not stated)", "activity, negative = inhibition": "inactive: -6.81%"}, {"smiles": "CN(C)c1oc(COc2ccc(F)cc2)nc1C#N", "Potency": "inconclusive [inhibitor, single point]"}, {"smiles": "CCN(CC)c1ccc(C=Nc2ccc(C)cc2C)c(O)c1", "Potency": "active: 20 µM"}, {"smiles": "CCOc1ccc(OCc2ccc(C(=O)Nc3cccnc3)o2)cc1", "activity, negative = inhibition": "inactive: -7.19%"}, {"smiles": "Cc1cccc(-c2cc(C(=O)NCCCn3ccnc3)c3ccccc3n2)c1", "activity, negative = inhibition": "inactive: -0.755%"}, {"smiles": "CCN(CC)P(=O)(Nc1ccc(SC(F)F)cc1)c1ccc(N(C)C)cc1NC(=O)c1ccco1", "note": "(configuration not stated)", "Potency": "inconclusive [inhibitor, partial curve]"}, {"smiles": "O=C(NCCSc1c[nH]c2ccccc12)c1c(F)cccc1F", "activity, negative = inhibition": "inactive: -4.11%"}, {"smiles": "OCCCc1nc2n(n1)C(c1cccs1)C=C(c1ccccc1)N2", "note": "(configuration not stated)", "Potency": "inconclusive [inhibitor, partial curve]"}, {"smiles": "O=C(C1CC1)N1CCC(C(O)(c2ccccc2)c2ccccc2)CC1", "Potency": "inconclusive [inhibitor, single point]"}, {"smiles": "Cc1ccc(C(c2nnnn2Cc2cccs2)N2CCN(Cc3ccc4c(c3)OCO4)CC2)cc1", "note": "(configuration not stated)", "Potency": "active: 10 µM"}, {"smiles": "CC(=O)c1c(C)[nH]c(C(=O)OCC(=O)Nc2cccc(S(=O)(=O)N3CCCC3)c2)c1C", "activity, negative = inhibition": "inactive: 2.67%"}, {"smiles": "Cc1ccc2cc3cc(C(=O)NCc4ccco4)oc3nc2c1", "Potency": "inconclusive [inhibitor, partial curve]"}, {"smiles": "Cc1ccc(C)n1-c1cc(S(=O)(=O)N2CCOCC2)ccc1N1CCCC1", "Potency": "inconclusive [inhibitor, single point]"}, {"smiles": "O=C(c1cccs1)N1CCN(Cc2ccccn2)CC1", "Potency": "active: 15 µM"}, {"smiles": "O=C(c1cc2ccccc2oc1=O)N(Cc1ccco1)Cc1cccs1", "Potency": "inconclusive [inhibitor, single point]"}, {"smiles": "Cc1cc(=O)n2[nH]cc(C(=O)O)c2n1", "Potency": "inconclusive [inhibitor, single point]"}, {"smiles": "COc1ccc(NC(=O)c2cc(-c3ccc(C)o3)nc3ccccc23)cc1OC", "Potency": "inconclusive [inhibitor, partial curve]"}, {"smiles": "C/C(CC(=O)NCCCN1CCOCC1)=N\\NC(=O)COc1cccc2ccccc12", "activity, negative = inhibition": "inactive: 0.552%"}, {"smiles": "CCN1c2cccc3cccc(c23)S1(=O)=O", "Potency": "inconclusive [inhibitor, single point]"}, {"smiles": "O=C(c1ccc(Cl)cc1)c1oc2ccccc2c1CS(=O)c1ccccc1", "note": "(configuration not stated)", "Potency": "inconclusive [inhibitor, partial curve]"}, {"smiles": "Cc1cc2ccccc2c(=O)n1CC(=O)NCC(=O)N1CCN(c2ccccc2F)CC1", "Potency": "inconclusive [inhibitor, partial curve]"}, {"smiles": "S=C(NNc1ccnc2cc(Cl)ccc12)Nc1ccccc1Cl", "Potency": "inconclusive [inhibitor, partial curve]"}, {"smiles": "Cc1c(C(=O)O)sc2nc(CSc3nnc(-c4ccc(F)cc4)n3C)[nH]c(=O)c12", "Potency": "active: 18.9 µM"}, {"smiles": "N#Cc1ccc(C(=O)Nc2ccc(S(=O)(=O)NC3=NCCCCC3)cc2)cc1", "Potency": "inconclusive [inhibitor, single point]"}, {"smiles": "COc1ccc(C2C(C(=O)c3ccco3)=C(O)C(=O)N2CCOCCO)cc1OC", "note": "(configuration not stated)", "Potency": "active: 20 µM"}, {"smiles": "C#CCn1cc(/C=N/NC(=O)c2cc3ccccc3o2)c2ccccc21", "Potency": "inconclusive [inhibitor, single point]"}, {"smiles": "O=c1c2cc3c(=O)n(CC4CCCO4)c(=O)c3cc2c(=O)n1CC1CCCO1", "note": "(configuration not stated)", "Potency": "active: 0.316 µM"}, {"smiles": "CCCc1cc(SCC(=O)Nc2c(C)n(C)n(-c3ccccc3)c2=O)n2c(nc3ccccc32)c1C#N", "activity, negative = inhibition": "inactive: 5.83%"}, {"smiles": "CCNC(=O)c1sc(=S)n(-c2ccc(C)cc2)c1N", "Potency": "active: 12.6 µM"}, {"smiles": "O=C(c1ccco1)N1N=C2CCCCCC2C1(O)C(F)(F)F", "note": "(configuration not stated)", "Potency": "inconclusive [inhibitor, single point]"}, {"smiles": "COCCSc1ccccc1C(=O)Nc1ccc(Br)cc1", "Potency": "inconclusive [inhibitor, single point]"}, {"smiles": "Cc1cc2cc(CN(CCN3CCOCC3)C(=O)Nc3ccccc3F)c(=O)[nH]c2cc1C", "Potency": "inconclusive [inhibitor, single point]"}, {"smiles": "CCOC(=O)CSc1nc2c(c(=O)n(Cc3ccccc3Cl)c(=O)n2C)n1C", "Potency": "inconclusive [inhibitor, single point]"}, {"smiles": "CCCn1c(=O)c(C(=O)NCc2ccc(OC)c(OC)c2)c(O)c2ccccc21", "Potency": "inconclusive [inhibitor, partial curve]"}, {"smiles": "O=C1C(=O)N(c2ccccc2)c2ccccc21", "Potency": "active: 6.31 µM"}, {"smiles": "COc1ccc(-c2nc(CS(=O)CC(=O)N3CCc4ccccc4C3)c(C)o2)cc1", "note": "(configuration not stated)", "Potency": "active: 25.1 µM"}, {"smiles": "CN(C)C(=S)Nc1ccc2ccccc2c1", "Potency": "inconclusive [inhibitor, partial curve]"}, {"smiles": "CCOc1ccc(/C=N/NC2=NCCCCC2)cc1", "activity, negative = inhibition": "inactive: -3.48%"}, {"smiles": "CC(C)CC(c1nnnn1C1CCCC1)N1CCC(C(N)=O)CC1", "note": "(configuration not stated)", "Potency": "active: 22.4 µM"}, {"smiles": "CCn1c(SCC(=O)Nc2cccc(NC(=O)c3ccco3)c2)nnc1-c1cccs1", "Potency": "inconclusive [inhibitor, single point]"}, {"smiles": "Cc1cc(C)c(C#N)c(SCC(=O)c2cc(C)n(CCc3ccccc3)c2C)n1", "Potency": "inconclusive [inhibitor, partial curve]"}]}]}
